Among all 50,000 compounds or so, about 800 (1.6%) showed an effect of 50% or more. This is one part of the list.
Each molecule was assayed against Bcl-2-like protein 10 (Homo sapiens) (UniProt Q9HD36) (assay: Phenotype converters, Bcl-B/TR3 peptide binding displacement, primary biochemical FP (AID 1240;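 further: 0% = Bcl-B with tracer peptide and DMSO and 100% = tracer peptide lacking Bcl-B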)). Conditions: GST-Bcl-B / FITC-TR3 peptide fluorescence polarization; stronger effect = higher value; compound at 3.75 mg/L.
Sequence of UniProt Q9HD36 (Q9HD36 whole entry, looked up): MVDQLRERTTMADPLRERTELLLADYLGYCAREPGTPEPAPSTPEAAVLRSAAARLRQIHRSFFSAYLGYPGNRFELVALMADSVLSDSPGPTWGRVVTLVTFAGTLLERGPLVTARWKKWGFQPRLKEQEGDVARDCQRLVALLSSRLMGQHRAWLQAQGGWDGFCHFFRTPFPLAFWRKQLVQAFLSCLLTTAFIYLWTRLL
For Cc1ccccc1SCCNC(=O)Nc1cc(F)c(F)cc1Cl, the displacement was -8.1%.
For COc1cc(Cl)cc(/C=C2\SC(=S)N(C)C2=O)c1O, the displacement was -29.1%.
In the case of CC(C)c1c(O)nc(SCCC(=O)O)[nH]c1=O, the displacement is reported as -11.9%.
For CCOC(=O)c1cc2cc([N+](=O)[O-])ccc2oc1=O, the displacement was -5.9%.
CC(C)c1ccc(OCC(=O)Nc2ccc(F)cc2)cc1 was tested, and the displacement was 5.6%.
In the case of C=CCC1(O)C(C)C(c2cc(OC)ccc2OC)NC(c2cc(OC)ccc2OC)C1C (centres undefined), the displacement is reported as 13.9%.
With Nc1cc[n+](CC(=O)c2ccccc2)cc1 the displacement was 8.3%.
With COC(=O)/C(=C\C(=O)c1ccc(Cl)cc1)Nc1ccccc1 the displacement was -46.6%.
COc1ccc(CN2CCN(CCCc3ccccc3)CC2)c(OC)c1 showed a displacement of -11.1%.
Work on O=C(O)c1ccccc1-c1ccccc1C(=O)Nc1ccc(-c2nc3ccccc3o2)cc1 yielded a displacement of -0.6%.
Cc1ccccc1-n1c(N)c(C#N)c2nc3ccccc3nc21 gave a displacement of 16.4%.
O=C(NOC(=O)c1ccccc1Br)c1ccc(Cl)cc1 was tested, and the displacement was -2.2%.
For COc1ccc(S(=O)(=O)N2CCN(Cc3cc(OC)c(O)c(OC)c3)CC2)cc1, the displacement was -5.7%.
Molecule COc1ccc(N=C2NC(=O)/C(=C/c3ccc(N(C)C)cc3)S2)cc1 has a displacement of 84.9%.
For CCN1C(=O)/C(=C\c2cc(Cl)ccc2OCc2ccc(F)cc2)SC1=S, the displacement was 5.6%.
For COc1ccccc1/C=N/Nc1cc(N2CCCC2)nc(N2CCCC2)n1, the displacement was 33.3%.
For CCn1c(C)nc2c(Cl)c(O)ccc21, the displacement was -4.1%.
In the case of Cc1ccc(-n2ncnc2-c2ccccc2Cl)cc1Cl, the displacement is reported as -0.3%.
With O=C1C=CC(=O)N1c1ccc(OC(F)F)cc1 the displacement was 8%.
Work on O=C1c2ccccc2/C(=N/N=C/C=C/c2ccco2)C1C(=O)C(c1ccccc1)c1ccccc1 (centres undefined) yielded a displacement of -47.1%.
CC(=O)c1cc2c(cc1[N+](=O)[O-])OCCO2 showed a displacement of 13.7%.
With O=C1C(=O)N(Cc2cccnc2)C(c2ccc(Cl)cc2)/C1=C(\O)c1ccccc1 (centres undefined) the displacement was -11.7%.
O=C(O)CCC(=O)Nc1ccc(Cc2ccc(NC(=O)CCC(=O)O)cc2)cc1 gave a displacement of 10.8%.
Work on CCCOc1ccc(CC(CC(=O)O)(C(=O)O)C(=O)O)cc1 yielded a displacement of -9.6%.
Work on O=C(CN1CCOCC1)C12CC3CCC(CC(C3)C1)C2 yielded a displacement of 8.2%.
CC1(C)CC2CC(C)(CN2S(=O)(=O)c2ccc(C(=O)Nc3ccccc3N3CCOCC3)cc2)C1 (centres undefined) gave a displacement of 10.9%.
Work on Cc1ccc(OCC(=O)n2cnnc2N)c(Br)c1 yielded a displacement of 5.4%.
Molecule CC1=C(C(=O)Nc2ccc(Cl)cc2)C(c2cccs2)NC(=S)N1 (centres undefined) has a displacement of -11.4%.
Work on O=C(/C=C/c1ccc(Cl)cc1)Nc1ccc(O)c(-c2nc3ccccc3o2)c1 yielded a displacement of 3.4%.
O=S1(=O)CCC(NC(=S)N=Nc2c(O)[nH]c3ccccc23)C1 (centres undefined) showed a displacement of -3.7%.
In the case of COc1ccc(C2Nc3ccccc3NC3=C2C(=O)CC(c2ccccc2)C3)cc1Br (centres undefined), the displacement is reported as 0.6%.
Molecule O=C(O)CC(NS(=O)(=O)c1ccc(F)cc1)c1ccccc1 (centres undefined) has a displacement of 7.6%.
In the case of CCOC(=O)C1=C(O)/C(=C/c2ccccc2O)N=C1C, the displacement is reported as -2%.
With CC1=C(C)CC(C(=O)Nc2ccc(C(N)=O)cc2)C(C(=O)O)C1 (centres undefined) the displacement was 9%.
COC(=O)C1=C(N)OC2=C(C(=O)CC(C)(C)C2)C1c1cccc(C)c1 (centres undefined) was tested, and the displacement was 4.7%.
O=C(Cc1nnc(NC(=O)c2ccco2)s1)NCc1ccccc1 showed a displacement of -13.8%.
Work on O=C(Nc1ccc(Cl)cc1)N1CCN(c2cccc(Cl)c2)CC1 yielded a displacement of -8.7%.
CCOc1ccc2nc(NC(=O)c3cccc(Br)c3)sc2c1 showed a displacement of 10.1%.
Molecule COc1ccc(OC)c(/C=C/C(=O)Nc2cccc(Br)c2)c1 has a displacement of 12.3%.
CCNC(=O)C(=O)Nc1ccccc1OCC showed a displacement of -0.7%.
With CCNC(=O)C(=O)Nc1ccc(OCC)cc1 the displacement was 7.5%.
Cc1ccc(S(=O)(=O)c2ccc(C)c(S(=O)(=O)NC3CCCCC3)c2)cc1S(=O)(=O)NC1CCCCC1 gave a displacement of -4.7%.
Molecule Nc1ccc(-c2ccc(S(=O)(=O)c3ccc(-c4ccc(N)cc4)cc3)cc2)cc1 has a displacement of 9.4%.
With O=C(CSC1=NCCS1)n1c2c(c3ccccc31)CCCC2 the displacement was 31.5%.
Work on CCOc1ccc(NC(=O)c2ccc([N+](=O)[O-])o2)cc1 yielded a displacement of -4.8%.
In the case of CCC1CCc2c(sc(NC(=O)C3CCCC3)c2C(N)=O)C1 (centres undefined), the displacement is reported as -1.5%.
With O=C(c1ccccc1O)N1N=C(c2ccc(Br)cc2)CC1(O)C(F)(F)F (centres undefined) the displacement was 3%.
Work on O=C(N/N=C/c1cccc([N+](=O)[O-])c1)C(=O)N1CCCCCC1 yielded a displacement of -3.3%.
O=C1CC(c2ccccc2)CC2=C1C(c1cccc(Br)c1)Nc1ccccc1N2 (centres undefined) was tested, and the displacement was -5.8%.
Cc1c(OCC(=O)c2ccccc2)ccc2c1oc(=O)c1ccccc12 showed a displacement of 5.4%.
Molecule CCOCCOC(=O)c1ccc(NC(=O)c2ccc([N+](=O)[O-])cc2)cc1 has a displacement of -3.3%.
With COc1ccc(-c2cc3c(ccc4ccccc43)oc2=O)cc1 the displacement was -4.2%.
Molecule CC(C)(C)c1cc(C(=O)N/N=C/c2ccc(O)cc2O)n(-c2ccccc2)n1 has a displacement of 5.9%.
CCOc1ccc(N2C(=O)/C(=C/c3cccc(Br)c3)SC2=S)cc1 was tested, and the displacement was -5.5%.
Cc1c(N=Cc2sc3ccccc3c2O)c(=O)n(-c2ccccc2)n1C was tested, and the displacement was -14.2%.
Work on O=C1c2cccnc2C(=O)N1c1ccc(Oc2ccc(N3C(=O)c4cccnc4C3=O)cc2)cc1 yielded a displacement of 15.7%.
CCOC(=O)Cc1nnc(Nc2ccc(Nc3nnc(CC(=O)OCC)c4ccccc34)cc2)c2ccccc12 gave a displacement of 1.3%.
For O=C(c1ccccc1O)N1N=C(c2cccnc2)CC1(O)C(F)(F)F (centres undefined), the displacement was -1.6%.
COc1ccc(-c2nnc(-c3ccc(C)cc3)o2)cc1 showed a displacement of -10.4%.
O=C(O)C1CCCCC1C(=O)NCCC(c1ccccc1)c1ccccc1 (centres undefined) was tested, and the displacement was -10.4%.
In the case of COC(=O)/C(=C/c1ccccc1)[N+](=O)[O-], the displacement is reported as -0.3%.
COc1cccc(OCCn2cc(C=C3C(=O)NC(=O)NC3=O)c3ccccc32)c1 gave a displacement of 15.2%.
In the case of COc1ccc(S(=O)(=O)N(CC(=O)Nc2cc(C)ccc2C)c2ccc(C)cc2)cc1OC, the displacement is reported as 2.9%.
COc1cc(C(=O)NC(NC(=S)N2CCOCC2)C(Cl)(Cl)Cl)cc(OC)c1OC (centres undefined) was tested, and the displacement was -11.7%.
Work on COc1ccc(N2C(=O)c3ccccc3NC2c2ccc(OC)cc2OC)cc1 (centres undefined) yielded a displacement of 17.4%.
O=C(CSc1nc2ccccc2o1)Nc1ccccc1[N+](=O)[O-] gave a displacement of -7.3%.
For COC(=O)C1=NN(C(=O)c2ccc([N+](=O)[O-])cc2)C(O)(c2ccccc2)C1 (centres undefined), the displacement was -11.9%.
O=C1CC(N2CCC(O)CC2)C(=O)N1c1ccc(Br)cc1 (centres undefined) showed a displacement of -8.3%.
With CC(=O)/C(=C(/C)O)c1cc(C(C)(C)C)c(O)c(O)c1C(C)(C)C the displacement was 3.6%.
